Data published in PubChem BioAssay AID493208 (National Center for Advancing Translational Sciences (NCATS), 2011).
Among all 44,000 compounds or so, about 340 (0.77%) were called active. Another 5% or so got no clear call; they are omitted. The call rests on the fitted dose curve; in most records, active means well fitted inhibition curve with a large enough effect; inconclusive means small, poorly fitted or top-dose-only effect; inactive means flat fitted curve, though single readings scatter. Some of the results follow.

experiment: Acumen qHTS Assay for Inhibitors of the mTORC1 Signaling Pathway in MEF (Tsc2-/-, p53-/-) Cells: Sytravon; details: phospho-rpS6 immunofluorescence/PI, 24 h; series mostly up to 38.3 µM; activity change, negative = inhibition: at the top concentration; further: nearly all actives have a fitted effect of over 50% in size
Source text: NIH Molecular Libraries Probe Production Centers Network [MLPCN] NIH Chemical Genomics Center [NCGC] MLPCN Grant: NS059428-01 Assay Submitter (PI): Blenis, John; Hoffman, Greg; Harvard University NCGC Assay Overview: The mammalian target of rapamycin (mTOR) is an intracellular serine/threonine kinase Aberrant regulation of mTOR signaling plays a causative role in a number of human diseases, including cancer, benign tumors such as lymphangioleiomyomatosis (LAM) and Tuberous Sclerosis Complex (TSC), and metabolic diseases such as diabetes and obesity. This project aims to identify inhibitors of ribosomal protein S6 (rpS6) phosphorylation. The phosphorylation of rpS6 is a key event downstream of mTOR activation. The assay uses a phospho-specific antibody of phospho-rpS6 to detect inhibitors of mTOR activation. Mutations in the Tsc1 and Tsc2 genes are the underlying genetic lesions responsible for TSC, causing constitutive activation of the mTORC1 pathway and leading to profound effects on cell metabolism. Aberrant metabolism in cancer has recently received significant attention as a target to develop therapeutic agents in the treatment of cancer.1 As Tsc2-/- cells have lost the ability to respond to energy and growth factor deprivation, these cells are unable to properly down regulate cellular biosynthetic processes in response to metabolic stress, and are thus extremely sensitive to glucose deprivation-induced death.2 A central goal of this project is to explore the unique cell survival and metabolic properties of cells with Tsc1 or Tsc2 by screening for compounds that selectively target the Tsc2-/- MEFs by screening both Tsc2-/- and WT MEF cell lines. We hope to better understand these aspects of TSC physiology in order to exploit them for therapeutic benefit.
NCGC Acumen Assay Protocol Summary: For quantitative high throughput analysis of mTORC1 signaling, we developed a cell-based assay for immuno-fluorescence based detection of rpS6 phosphorylation on the Acumen Explorer that will be used a platform for the primary small molecule screen. Mouse embryonic fibroblasts (MEFs) are cultured in 1536-well plates using DMEM + 10% FBS. Twenty-four hrs after plating, test compounds (solubilized in DMSO) are delivered and incubated with the cells for 24 hrs at 37 degree Celsius. Following the incubation, media with compound is aspirated and the cells are fixed in 4% paraformaldehyde (PFA) containing PBS + 0.2% TX-100. Next, PFA is aspirated, cells are washed two times with PBS plus 0.2% TX-100 and the cells are blocked for 1 hr at room temperature (blocking buffer: LiCOR Blocking Buffer plus 0.2% TX-100). […] Cells are washed two times with PBS plus 0.2% TX-100, and stained with 10 uM propidium iodide (PI) for 20-25 minutes for cell number measurement (1:500 dilution of Hoescht staining is also added for IN Cell imaging). The plates are scanned on the Acumen Explorer laser scanning instrument (TTP Labtech) using the 488nm laser for simultaneous excitation of the Alexa-488 and PI. […] The normalized phospho-S6 staining is calculated as the ratio of the integrated Alexa 488 intensity divided by the integrated PI intensity for the single concentration rapamycin control (7.5 nM) and DMSO columns. […] Inhibition of the pathway is defined based on the normalized phospho-S6 intensity in rapamycin treated cells. Active cells are defined as those with a normalized phospho-S6 staining above this threshold, and each treatment is reported as the % positive cells in the well, where thresholds are defined by selecting wells with the highest and lowest signal and differentiating between the % non-active and % active populations. In addition to the pathway specific phospho-S6 endpoint, the number of PI stained cells from the Acumen is recorded as a measure of cell viability. The primary screen was performed with a MEF cell line in a defined genetic background, Tsc2-/-, p53-/- cell line stably transfected with an empty vector control (Tsc2-/- MEF).

Activity change, negative = inhibition, inactive:
CCOC(=O)c1ccc(NC(=O)C2CCN(C(=O)N3CC(C)Oc4ccc(C)cc43)CC2)cc1 (centres undefined) 3.32%
O=S(=O)(NCCc1csc2nc(-c3ccc(Cl)cc3)nn12)c1ccc(Oc2ccccc2)cc1 0.827%
CC(=O)c1cccc(NC(=O)CSc2nnc3ccc(-c4ccc(C)cc4)nn23)c1 5.83%
Cc1cc2nc(-c3ccc(Cl)cc3)cc(C(F)(F)F)n2n1 -1.77%
Cc1ccccc1-c1nc(C(N)=O)c2c(n1)n(-c1ccc3c(c1)OCO3)c(=O)n2C -4.73%
CN(C)S(=O)(=O)c1ccc2c(c1)N(CC(=O)NCc1cccc(Br)c1)C(=O)CS2 -3.22%
Cc1ccc(-c2nnc(NC(=O)c3ccc4c(c3)OCCO4)o2)c(C)c1 2.58%
Cc1cc2c(cc1S(=O)(=O)CCC(=O)NC1CCC(C)CC1)OCC(=O)N2 (centres undefined) -8.6%
COc1ccccc1-c1nnc2n(CCc3ccccc3)c(=O)c3ccccc3n12 2.38%
O=C1CC(c2nnc(Cc3ccc(Cl)cc3)o2)CN1c1ccccc1 (centres undefined) 2.86%
O=c1cc2nc(-c3cccs3)nc(SCCOc3ccc(Cl)cc3)n2[nH]1 7.59%
CCn1c(=N)c(C(=O)NC2CCCCC2)cc2c(=O)n3cccc(C)c3nc21 1.49%
Cc1ccc(C)c(Cn2c(=O)n(Cc3ccc(C(=O)NC4CCN(Cc5ccccc5)CC4)cc3)c(=O)c3ccccc32)c1 -5.34%
Cc1ccc(O)c(NC(=O)c2noc3c2CCCCC3)c1 -14%
COc1cccc(-n2cc(C(=O)Oc3cccc(C(F)(F)F)c3)c3ccccc3c2=O)c1 -14.2%
O=C(CC1C(=O)N(c2ccc(F)cc2)C(=O)N1Cc1ccc2c(c1)OCO2)Nc1ccc(F)cc1 (centres undefined) -1.45%
CC(=O)N1c2ccccc2CC1C(=O)N1CCN(c2cccc(Cl)c2)CC1 (centres undefined) 13.2%
COc1cccc(CNC(=O)CN2C(=O)CCCc3ccccc32)c1OC -3.53%
CCOc1ccc(OCC)c(NC(=O)C(NS(=O)(=O)c2ccc(Br)s2)c2ccccc2)c1 (centres undefined) -18.9%
Cc1ccc(C)c(CN2C(=O)c3ccccc3S(=O)(=O)c3ccc(C(=O)N4CCCC4)cc32)c1 -4.06%
CCOC(=O)c1cnc2c(C)cccc2c1NCCc1ccc(OC)c(OC)c1 -6.63%
CCc1ccc(NC(=O)c2ccc3oc(=O)n(Cc4ccccc4)c3c2)cc1 12%
Nc1c(-c2nc(-c3cccs3)no2)nnn1-c1cccc(F)c1 -7.73%
CCN(c1ncnc2c1cnn2-c1cc(Cl)ccc1C)C1CCCCC1 -13.8%
CCc1sc(Nc2ccc(C)cc2Br)nc1-c1cc2cccc(OC)c2oc1=O 0.464%
CCOC(=O)CSc1nc2c(sc3ccccc32)c(=O)n1Cc1ccc(C)cc1 0.028%
CC(=O)NCCNc1nc2c(-c3ccc(C)cc3)nnn2c2ccccc12 -20.6%
CCCN(CCC)C(=O)Cn1c(=O)n(-c2ccc(C)cc2)c(=O)c2ccc(C(=O)NCc3ccccc3Cl)cc21 -3.95%
CNC(=O)C1CCN(Cc2cc3ccccc3n2Cc2ccccc2C)CC1 -13.2%
CCCCNC(=O)Cn1c(=O)cc(C)c2c(C)nn(-c3ccc(CC)cc3)c21 -9.68%
CCC1CN(C(=O)N2CCC(C(=O)NCCc3ccc(C)cc3)CC2)c2ccccc2O1 (centres undefined) 10.1%
O=C(CCc1nnc2n(Cc3ccccc3Cl)c(=O)c3ccccc3n12)Nc1ccc(F)c(F)c1 -1.58%
Cc1ccc(-n2nc(CO)c(C(=O)NCC(c3ccccc3)c3ccccc3)n2)cc1 1.45%
O=C(NCc1cccc(Br)c1)C1CCN(C(=O)c2sccc2-n2cccc2)CC1 -1.54%
Cc1oc(-c2ccccc2)nc1CSc1nnc(C)n2c1cc1sccc12 2.37%
CCOCCCNC(=O)CCC(=O)NNc1nc2ccccc2c2nc(-c3ccccc3)nn12 0.234%
CCCOc1ccc(C(=O)Nc2ccc(NC(=O)c3cccc(Cl)c3)cc2)cc1 4.1%
Cc1ccc(C)c(N2CCN(C(=O)c3cc(S(=O)(=O)N4CCCC4)c[nH]3)CC2)c1 -1.81%
COc1cccc(Nc2cc(-c3ccccc3)nc(C)n2)c1 0%
COc1ccc(NC(=O)c2c(NCc3cccc(OC)c3)sc3c2CCC3)cc1 0.56%
COc1ccc(C)c2sc(N(Cc3cccnc3)C(=O)COc3ccccc3)nc12 -0.598%
Cc1cccc(Nc2ncnc3c2cnn3C)c1C 5.4%
COc1cc(OC)cc(C(=O)NCc2ccc3c(c2)CCN3C(=O)c2ccccc2)c1 -5.29%
Cc1ccc(-n2ncc3c(N4CCN(C)CC4)ncnc32)cc1 -0.418%
Cc1ccc2c(c1)N(C(=O)N1CCC(C(=O)NC3CCCCCC3)CC1)CCO2 -7.11%
CN(C)c1ccc(-c2nc(-c3ccncc3)no2)cc1[N+](=O)[O-] -0.848%
COc1ccc(CC(=O)N2CC(=O)Nc3ccc(Br)cc3C2c2ccc(F)cc2)cc1OC (centres undefined) 7.04%
COc1cc2nc(NCc3ccccc3Cl)n3nc(-c4cccnc4)nc3c2cc1OC 0.789%
COC(=O)c1ccc(NC(=O)CC2C(=O)N(c3ccccc3)C(=O)N2C2CCCC2)cc1 (centres undefined) -0.238%
